The values below come from the supplement of paper PMC11060735.

The structures appear in SMILES notation. Where a name gives a salt, the structure may show the parent alone. About 50 (3%) of roughly 1,800 compounds showed activity. The list shows a part of the results.
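Also: fibroblasts sorted 14 days after bleomycin, GFP+ and GFP− mixed 1:1 in 384-well plates (GFP− as in-well control), imaged after Hoechst and NucView530 staining, reference wells lacked compound.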

In the assay the test system is mouse p16Ink4a+/- lung fibroblasts (INKBRITE, bleomycin-injured). Put plainly: percentage of GFP+ (p16Ink4a+) fibroblasts among all cells in well; higher = less depletion of p16Ink4a+ cells, active = 20 or less. The note with it: 1 µM; 3 days.
For the compound `O=C1NC(=O)C(=Cc2ccc3c(c2)OC(F)(F)O3)S1` (stereo in doubt), the “percentage of GFP+” value is inactive: 49.6%.
The result for `C#C[C@]1(O)CC[C@H]2[C@@H]3CCC4=CC(=O)CC[C@@H]4[C@H]3CC[C@@]21C` [Norethisterone] reads inactive: 52.3%; that for `Cc1ccc(-n2nc(C(C)(C)C)cc2NC(=O)Nc2ccc(OCCN3CCOCC3)c3ccccc23)cc1` [Doramapimod], inactive: 47.1%; that for `CCCN(CCC)S(=O)(=O)c1ccc(C(=O)O)cc1` [Probenecid], inactive: 44.3%.
Take `Cc1cc(Nc2ncc(Cl)c(Nc3ccccc3S(=O)(=O)C(C)C)n2)c(OC(C)C)cc1C1CCNCC1` [Ceritinib]: the “percentage of GFP+” value is inactive: 46.8%.
The result for `OC[C@@H]1CC[C@H](n2cnc3c(O)ncnc32)O1` [Didanosine] reads inactive: 48.5%; that for `Cc1cc(C(=O)NOCCO)c(Nc2ccc(I)cc2F)n(C)c1=O`, inactive: 21.2%; that for `CC(C)c1onc(-c2c(Cl)cccc2Cl)c1COc1ccc(/C=C/c2cccc(C(=O)O)c2)c(Cl)c1`, inactive: 37.4%.
The result for `COCCOc1ccc2c(c1)ncn2-c1ccc2cccc(N3CCC(N)CC3)c2n1` reads inactive: 29.2%; that for `CCCC(=O)O[C@]1(C(=O)COC(C)=O)CC[C@H]2[C@@H]3C[C@H](F)C4=CC(=O)C=C[C@]4(C)[C@@]3(F)[C@@H](O)C[C@@]21C` [Difluprednate], inactive: 50%; that for `Nc1c(CC(=O)O)cccc1C(=O)c1ccc(Br)cc1` [Bromfenac], inactive: 46.4%.
For the compound `CCOC(=O)[C@H](CCc1ccccc1)N[C@@H](C)C(=O)N1C(=O)N(C)C[C@H]1C(=O)O` [Imidapril HCl], the “percentage of GFP+” value was inactive: 43.4%.
The result for `O=C(Nc1cccc(Cl)c1)Nc1ncc(CCNc2ncnc3ccsc23)s1` [SNS-314 Mesylate] reads inactive: 34.9%; that for `O=C(O)COCCN1CCN(C(c2ccccc2)c2ccc(Cl)cc2)CC1` (stereo not given) [Cetirizine], inactive: 46.1%; that for `CC(C)c1noc(N2CCC(COc3ccc(-c4ccc(S(C)(=O)=O)cc4)nc3)CC2)n1`, inactive: 37.2%.
`Cc1cc(=O)n(-c2ccccc2)n1C` [Antipyrine]: the “percentage of GFP+” value was inactive: 48.2%.
The result for `CCN(CC)CC#CCOC(=O)C(O)(c1ccccc1)C1CCCCC1` (stereo not given) [Oxybutynin] reads inactive: 50.9%; that for `C=CC[C@@H]1/C=C(\C)C[C@H](C)C[C@H](OC)[C@H]2O[C@@](O)(C(=O)C(=O)N3CCCC[C@H]3C(=O)O[C@H](/C(C)=C/[C@@H]3CC[C@@H](O)[C@H](OC)C3)[C@H](C)[C@@H](O)CC1=O)[C@H](C)C[C@@H]2OC` [Tacrolimus], inactive: 38.6%; that for `COC(=O)N[C@H](C(=O)N[C@@H](Cc1ccccc1)[C@@H](O)CN(Cc1ccc(-c2ccccn2)cc1)NC(=O)[C@@H](NC(=O)OC)C(C)(C)C)C(C)(C)C` [Atazanavir], inactive: 37.3%.
With `O=C(O)CSCC(=O)NC1CCSC1=O` (stereo not given) [Erdosteine], the “percentage of GFP+” value was inactive: 35.4%.
The result for `O=C1c2ccccc2C(=O)c2c1ccc(O)c2O` [Alizarin] reads inactive: 38.6%; that for `CCCCC(F)(F)C(=O)CC[C@H]1[C@H](O)CC(=O)[C@@H]1CCCCCCC(=O)O` [Lubiprostone], inactive: 45.4%; that for `NNc1nncc2ccccc12` [Hydralazine], inactive: 35.5%.
For the compound `C[C@H](CCC(=O)O)[C@H]1CC[C@H]2[C@@H]3[C@H](O)C[C@@H]4C[C@H](O)CC[C@]4(C)[C@H]3CC[C@]12C` [Chenodeoxycholic Acid], the “percentage of GFP+” value was inactive: 38%.
The result for `COc1cc(/C=C/C(=O)/C=C(O)/C=C/c2ccc(O)c(OC)c2)ccc1O` reads inactive: 38.1%; that for `Cc1ccc(NC(=O)C2(c3ccc4c(c3)OC(F)(F)O4)CC2)nc1-c1cccc(C(=O)O)c1` [Lumacaftor], inactive: 35.2%.
Regarding `CCCS(=O)c1ccc2[nH]c(NC(=O)OC)nc2c1` (stereo not given) [Albendazole Oxide], the “percentage of GFP+” value is inactive: 41.8%.
The result for `Cc1c(CN2CCN(C(=O)[C@H](C)O)CC2)sc2c(N3CCOCC3)nc(-c3cnc(N)nc3)nc12` reads inactive: 34.5%; that for `COc1cc(Nc2ncc(F)c(Nc3ccc4c(n3)N(COP(=O)(O)O)C(=O)C(C)(C)O4)n2)cc(OC)c1OC` [Fostamatinib], inactive: 30.6%; that for `CC(C)(C)Cn1c(N)nc2ccc(-c3[nH]c(C(C)(C)C)nc3-c3ccc(F)cc3)nc21`, inactive: 49.3%.
The result for `CC(C)OC(=O)C1=CN(C(=O)c2ccc(F)c(F)c2)CC(C)(C)c2c1[nH]c1ccccc21` reads inactive: 45.9%; that for `Oc1cc(O)cc(/C=C/c2ccc(O)c(O)c2)c1` [Piceatannol], inactive: 46.1%; that for `Clc1cccc(Cl)c1NC1=NCCN1` [Clonidine], inactive: 51.5%.
The result for `CN1[C@@H]2CC[C@H]1C[C@@H](OC(=O)C(O)c1ccccc1)C2` (stereo not given in full) [Homatropine Bromide] reads inactive: 40.7%; that for `CC(=O)Oc1cccc2c1C(=O)c1c(OC(C)=O)cc(C(=O)O)cc1C2=O` [Diacerin], inactive: 41.3%; that for `CC(C)n1nc(-c2cc3cc(O)ccc3[nH]2)c2c(N)ncnc21`, inactive: 33.7%.
For `CCC(=O)NCC[C@@H]1CCc2ccc3c(c21)CCO3` [Ramelteon], the “percentage of GFP+” value was inactive: 56%.
The result for `Cc1nc2n(c(=O)c1CCN1CCC(c3noc4cc(F)ccc34)CC1)CCCC2` [Risperidone] reads inactive: 42.6%; that for `CCc1oc2ccccc2c1C(=O)c1cc(Br)c(O)c(Br)c1` [Benzbromarone], inactive: 50.5%.
The result for `CC(=O)Nc1ccc(C(=O)Nc2ccccc2N)cc1` [Tacedinaline] reads inactive: 34.9%; that for `CN(C)CCCOc1nn(Cc2ccccc2)c2ccccc12` [Benzydamine], inactive: 38.8%.
The result for `CNCC[C@@H](Oc1ccccc1C)c1ccccc1` [Atomoxetine] reads inactive: 47.9%; that for `CC(=O)Nc1ncc([N+](=O)[O-])s1` [Nithiamide], inactive: 45.2%.
Turning to `CN(C)CCOC(C)(c1ccccc1)c1ccccn1` (stereo not given) [Doxylamine], the “percentage of GFP+” value is inactive: 42.9%.
Consider `COc1cc2nc(N3CCN(C(=O)C4COc5ccccc5O4)CC3)nc(N)c2cc1OC` (stereo not given) [Doxazosin], for which the “percentage of GFP+” value is inactive: 44.1%.
